# Measured values published in PubChem BioAssay (Tox21).
# Inconclusive results, whose numbers are uncertain, are shown with a selection of clear calls. Potencies of inconclusive entries are left out as doubtful fits. Active and inactive are the calls of the source. Calls follow the shape of the dose curve; as a rule, active = well fitted curve in the direction sought with a large enough effect in the repeat runs; inconclusive = weak or mixed curves; inactive = no such curve, though single readings can be large; an effect the other way counts as inactive or inconclusive.
# Columns and labels:
# [1] = qHTS RealTime-Glo MT Cell Viability Assay in HEK293 cells - 16 hour (AID 1224872); also: nearly all actives have a fitted effect of over 50% in size
# Method in brief: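 Cells + reagent dispensed (600 cells/well, HEK293) → 5 h at 37 C/5% CO2 → 23 nL compound in DMSO pinned → 40 h at 37 C → luminescence read at 0, 8, 16, 24, 32, 40 h.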
# [2] = qHTS RealTime-Glo MT Cell Viability Assay in HEK293 cells - 40 hour (AID 1224874); conditions: RealTime-Glo luminescence; max response: stronger effect = lower value; also: nearly all actives have a fitted effect of over 50% in size; as to max response: % is scaled to controls: 0 for no effect and ±100 for the full control effect
# Method in brief: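 Cells were seeded together with NanoLuc luciferase and a prosubstrate that viable cells reduce to a luciferase substrate. After a 5 h incubation at 37 C/5% CO2, compounds were added and luminescence was measured repeatedly during 40 h of treatment.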
# [3] = qHTS RealTime-Glo MT Cell Viability Assay in HepG2 cells - 8 hour (AID 1224873); also: nearly all actives have a fitted effect of over 55% in size
# Method in brief: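 HepG2 cells mixed with RealTime-Glo MT reagents (NanoLuc plus cell-permeant prosubstrate) were seeded at 600 cells/well, incubated 5 h at 37 C/5% CO2, then pinned with compounds in DMSO; nonlytic luminescence tracked viability during 40 h treatment.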
# [4] = A CellTox Green Cytotoxicity Assay to monitor cytotoxicity in HepG2 cells - 16 hour (AID 1224876); also: nearly all actives have a fitted effect of over 45% in size
# Method in brief: (§1)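 Read-out is fluorescence of a cyanine dye excluded from live cells that stains DNA of dead HepG2 cells, with signal proportional to cytotoxicity. Plates were read at 0, 8, 16, 24, 32 and 40 h after compound addition.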
# [5] = A CellTox Green Cytotoxicity Assay to monitor cytotoxicity in HepG2 cells - 24 hour (AID 1224878); also: nearly all actives have a fitted effect of over 45% in size
# Method in brief: as §1
# [6] = A CellTox Green Cytotoxicity Assay to monitor cytotoxicity in HepG2 cells - 40 hour (AID 1224879); also: nearly all actives have a fitted effect of over 40% in size
# Method in brief: as §1
# Potency is read from the fitted curve at half-maximal effect; tags tell the direction and shape of the fitted curve.
smiles,measurement,setting,value
COC(=O)Nc1ccc(Cl)c(Cl)c1,Potency,[1],"inconclusive [cytotoxic, single point]"
COc1ccc2c(c1)c(CC(=O)O)c(C)n2C(=O)c1ccc(Cl)cc1,Potency,[1],"inconclusive [rising, single point]"
same,Potency,[2],"inconclusive [rising, single point]"
Cc1ccccc1C(=O)Nc1ccc(C(=O)N2CCCC(O)c3cc(Cl)ccc32)c(C)c1 (stereo unspecified),Potency,[1],"inconclusive [cytotoxic, partial curve, poor fit]"
same,Potency,[2],"inconclusive [cytotoxic, partial curve]"
CC1CC(=O)NN=C1c1ccc(NCC(C)(C)NCC(O)COc2cc(Cl)ccc2C#N)cc1 (stereo unspecified),Potency,[1],"inconclusive [cytotoxic, partial curve, poor fit]"
same,Potency,[2],"inconclusive [cytotoxic, partial curve]"
CCC(C(=O)OCCN1CCOC(c2ccccc2)C1C)c1ccccc1 (stereo unspecified),Potency,[1],"inconclusive [cytotoxic, partial curve]"
same,Potency,[2],"inconclusive [cytotoxic, partial curve]"
Cc1c(-c2ccccc2)oc2c(C(=O)OCCN3CCCCC3)cccc2c1=O,Potency,[1],"inconclusive [cytotoxic, partial curve]"
same,Potency,[2],"inconclusive [cytotoxic, single point]"
Cc1ccc(N=Nc2c(O)ccc3ccccc23)c(C)c1,Potency,[1],"inconclusive [cytotoxic, partial curve, poor fit]"
O=S(=O)(Oc1ccc(Cl)cc1)c1ccccc1,Potency,[1],"inconclusive [cytotoxic, single point]"
O=C1OC2(c3ccccc31)c1ccc(O)c(Br)c1Oc1c2ccc(O)c1Br,Potency,[1],"inconclusive [cytotoxic, single point]"
same,Potency,[3],"inconclusive [falling, partial curve, poor fit]"
same,Potency,[2],"inconclusive [cytotoxic, single point]"
same,Potency,[4],"inconclusive [activator, partial curve, poor fit]"
same,Potency,[5],"inconclusive [activator, partial curve, poor fit]"
same,Potency,[6],"inconclusive [activator, full curve, poor fit]"
CCN(O)CC,Potency,[1],inactive
CO[Si](CCCCl)(OC)OC,Potency,[1],inactive
CCCCOC(=O)C(C)Oc1ccc(Oc2ccc(C(F)(F)F)cn2)cc1 (stereo unspecified),Potency,[1],"inconclusive [cytotoxic, partial curve]"
same,max response,[2],inactive: -1.23%
CC1(C)S[C@@H]2[C@H](NC(=O)C(C(=O)O)c3ccccc3)C(=O)N2[C@H]1C(=O)O (stereo partly specified),Potency,[1],inactive
CC1(C)C(=O)NC(=O)N1CO,Potency,[1],inactive
same,Potency,[3],inactive
C=CCSSCCC,Potency,[1],"inconclusive [rising, single point]"
same,Potency,[2],"inconclusive [rising, single point]"
C=COCCCC,Potency,[1],"inconclusive [rising, single point]"
same,Potency,[2],"inconclusive [rising, single point]"
CN(C)c1ccc(CCO)cc1,Potency,[1],"inconclusive [cytotoxic, partial curve, poor fit]"
same,Potency,[2],active: 34.5 µM
O=C1Nc2ccc([N+](=O)[O-])cc2C1=O,Potency,[1],"inconclusive [cytotoxic, single point]"
same,Potency,[2],"inconclusive [cytotoxic, single point]"
COC(=O)c1ccccc1C(=O)c1ccc(OCCN2CCCCC2)cc1,Potency,[1],inactive
CCCC(=O)OCC(COC(=O)CCC)OC(=O)CCC,Potency,[1],inactive
same,Potency,[2],"inconclusive [rising, partial curve, poor fit]"
C#C[C@]1(O)CC[C@H]2[C@@H]3CCC4=CC(=O)CC[C@@H]4[C@H]3CC[C@@]21C,Potency,[1],"inconclusive [cytotoxic, single point]"
same,Potency,[3],inactive
same,Potency,[2],"inconclusive [cytotoxic, partial curve]"
same,Potency,[5],"inconclusive [activator, partial curve, poor fit]"
same,Potency,[6],"inconclusive [activator, single point]"
O=C(O)c1ccccc1-c1ccc(C(F)(F)F)cc1,Potency,[1],inactive
CCN(CC)C(=O)Nc1ccc(OCC(O)CNC(C)(C)C)c(C(C)=O)c1 (stereo unspecified),Potency,[1],inactive
CC(O)CNCC(C)O (stereo unspecified),Potency,[1],inactive
same,Potency,[2],"inconclusive [cytotoxic, partial curve]"
